{"source": "PubChem BioAssay AID485294", "about": "(National Center for Advancing Translational Sciences (NCATS), 2010)", "note": "In all, about 370,000 compounds went through this assay and about 150 (0.041%) were called active. Inconclusive results, whose numbers are uncertain, are shown with a selection of clear calls. Calls follow the shape of the dose curve; as a rule, active = well fitted inhibition curve with a large enough effect; inconclusive = small, poorly fitted or top-dose-only effect; inactive = flat fitted curve, though single readings scatter. No potency is given beside an inconclusive call; the fits are too rough. Potency is read from the fitted curve at half-maximal effect; tags tell the direction and shape of the fitted curve.", "data": [{"molecular_target": "Beta-lactamase (Escherichia coli (strain K12)) (UniProt P00811)", "sequence (P00811 whole entry, looked up)": "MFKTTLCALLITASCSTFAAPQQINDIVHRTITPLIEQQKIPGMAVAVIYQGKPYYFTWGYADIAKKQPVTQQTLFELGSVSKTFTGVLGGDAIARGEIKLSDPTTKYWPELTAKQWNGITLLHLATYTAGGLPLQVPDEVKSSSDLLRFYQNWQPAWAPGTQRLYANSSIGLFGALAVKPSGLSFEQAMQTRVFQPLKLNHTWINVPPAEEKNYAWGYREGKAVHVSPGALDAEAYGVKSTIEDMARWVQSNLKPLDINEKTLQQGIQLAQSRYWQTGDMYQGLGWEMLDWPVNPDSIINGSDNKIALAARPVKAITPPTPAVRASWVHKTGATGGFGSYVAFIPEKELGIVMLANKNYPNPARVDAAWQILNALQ", "test": "qHTS Inhibitors of AmpC Beta-Lactamase (assay with detergent); also: nearly all actives have a fitted effect of over 25% in size", "settings": "AmpC hydrolysis of nitrocefin, absorbance 480 nm, 0.01% Triton; series mostly up to 114 µM", "how_it_was_run": "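20 mM phosphate pH 7.0 + 0.01% (detergent screen) or 0.0001% Triton X-100; 5.3 nM AmpC reagent; cpd preinc 15 min RT; nitrocefin (800 uM stock) to start; A480 q20 s × 4 min; Activity was normalised to no-enzyme and no-compound control wells.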", "values": [{"smiles": "COc1cc(C(=O)NC2CCCCC2)ccc1OC1CCN(C(C)=O)CC1", "Potency": "inconclusive [inhibitor, full curve, poor fit]"}, {"smiles": "O=C(NCCCn1ccnc1)c1cn(Cc2ccc(F)cc2)nn1", "Potency": "inconclusive [inhibitor, partial curve, poor fit]"}, {"smiles": "CCn1c(CNC(=O)c2ccc(OC)cc2)nnc1SCC(=O)Nc1ccc(F)cc1", "Potency": "inactive"}, {"smiles": "O=C(Nc1ccc2c(c1)OCCO2)c1cc2sccc2n1Cc1ccccc1", "Potency": "inactive"}, {"smiles": "CCCc1nnc(NC(=O)CCC(=O)O)s1", "Potency": "inconclusive [inhibitor, full curve, poor fit]"}, {"smiles": "CC(=O)c1cccc(NCC(=O)N2CCN(S(=O)(=O)c3ccccc3)CC2)c1", "Potency": "inconclusive [inhibitor, full curve, poor fit]"}, {"smiles": "CCOC(=O)c1cc(S(=O)(=O)N2CCN(c3ccccc3OC)CC2)[nH]n1", "Potency": "inconclusive [inhibitor, partial curve, poor fit]"}, {"smiles": "O=C(O)CSc1c2ccccc2cc2ccccc12", "Potency": "inconclusive [inhibitor, full curve, poor fit]"}, {"smiles": "COc1ccc(NC(=O)CSCc2cc(=O)c3cc(Cl)ccc3[nH]2)cc1", "Potency": "inactive"}, {"smiles": "CCc1ccc(CNC(=O)C2COc3ccccc3C2)cc1", "note": "(configuration not stated)", "Potency": "inactive"}, {"smiles": "COc1ccc(N2CCN(C(=O)[C@@H](NC(=O)c3ccccc3Cl)C(C)C)CC2)cc1", "Potency": "inconclusive [inhibitor, full curve, poor fit]"}, {"smiles": "Cc1cc(C)cc(N(CC(=O)N2CCn3c2nc2ccccc23)S(=O)(=O)c2c(C)noc2C)c1", "Potency": "inconclusive [inhibitor, full curve, poor fit]"}, {"smiles": "C[C@]12CCC(=O)C=C1CC[C@@H]1[C@@H]2C(=O)C[C@]2(C)C(=O)CC[C@@H]12", "Potency": "inconclusive [inhibitor, full curve, poor fit]"}, {"smiles": "c1csc(C2=Nn3c(nnc3-c3ccncc3)SC2)c1", "Potency": "inconclusive [inhibitor, full curve, poor fit]"}, {"smiles": "N#C/C(C(=O)NCc1ccco1)=C1/SC(Cc2ccc(Cl)cc2)C(=O)N1c1ccccc1", "note": "(configuration not stated)", "Potency": "inconclusive [inhibitor, partial curve, poor fit]"}, {"smiles": "C/C(=C\\C(=O)c1ccccc1)Nc1ccc(N2CCOCC2)cc1", "Potency": "inconclusive [inhibitor, full curve, poor fit]"}, {"smiles": "O=S(=O)(Nc1ccc(N2CCCCC2)cc1)c1cccs1", "Potency": "inconclusive [inhibitor, full curve, poor fit]"}, {"smiles": "CCOc1ccccc1OCCCC(=O)Nc1nc2ccccc2[nH]1", "Potency": "inactive"}, {"smiles": "CCC(C)C(NC(=O)c1ccc(Cl)cc1)C(=O)O", "note": "(configuration not stated)", "Potency": "inconclusive [inhibitor, full curve]"}, {"smiles": "O=C(NCCc1ccccc1)c1ccc(=O)oc1", "Potency": "inconclusive [inhibitor, partial curve, poor fit]"}, {"smiles": "O=C(Nc1ccccc1[N+](=O)[O-])C1COc2ccccc2O1", "note": "(configuration not stated)", "Potency": "inactive"}, {"smiles": "CCCCCC1CC(CC(=O)O)C(=O)O1", "note": "(configuration not stated)", "Potency": "inconclusive [inhibitor, single point]"}, {"smiles": "O=[N+]([O-])c1cc(/C=N/N/C(=N/c2ccccn2)c2ccccn2)ccc1O", "Potency": "inactive"}, {"smiles": "COc1cccc(CNC(=O)Cn2cccc2C(=O)c2ccccc2)c1", "Potency": "inactive"}, {"smiles": "CCOc1cc(/C=N/N=C2/NC(=O)C(CC(=O)O)S2)ccc1OCc1ccccc1Cl", "note": "(configuration not stated)", "Potency": "inactive"}, {"smiles": "CCc1ccc2oc(-c3ccc(NC(C)=O)cc3)nc2c1", "Potency": "inactive"}, {"smiles": "CC(OC(=O)C1=NN(c2ccccc2)C(=O)CC1)C(=O)NC1CCCCC1C", "note": "(configuration not stated)", "Potency": "inconclusive [inhibitor, single point]"}, {"smiles": "CCOC(=O)C1Nc2ccc(C(=O)O)cc2C2C=CCC12", "note": "(configuration not stated)", "Potency": "inconclusive [inhibitor, full curve, poor fit]"}, {"smiles": "Cc1cc(=O)[nH]c(SCC(=O)Nc2ccc(Br)cc2)n1", "Potency": "inconclusive [inhibitor, partial curve]"}, {"smiles": "CC(=O)N1CN(CCCn2ccnc2)Cc2c1sc1c2CCCC1", "Potency": "inconclusive [inhibitor, single point]"}, {"smiles": "Nc1nc(CSc2n[nH]c(-c3ccccc3)n2)nc(Nc2ccccc2)n1", "Potency": "inactive"}, {"smiles": "COC(=O)c1ccc(CN2CCCC(CNC(=O)Cc3ccc(OC)cc3)C2)cc1", "note": "(configuration not stated)", "Potency": "inconclusive [inhibitor, single point]"}, {"smiles": "COc1ccc(CCNC(=O)Cc2ccc(NC(=O)N3CCSc4ncccc43)cc2)cc1OC", "Potency": "inactive"}, {"smiles": "CC(=O)Nc1sc2c(c1-c1nc3ccccc3s1)CCN(C(C)C)C2", "Potency": "inactive"}, {"smiles": "CCC(OC(=O)c1nsc(Cl)c1Cl)C(=O)NCC1CCCO1", "note": "(configuration not stated)", "Potency": "inconclusive [inhibitor, full curve, poor fit]"}, {"smiles": "COc1cccc(-c2nc(CS(=O)(=O)CC(=O)Nc3ccc(C)c(Cl)c3)c(C)o2)c1", "Potency": "inactive"}, {"smiles": "COc1cccc(-c2nc(CS(=O)(=O)CC(=O)NCCc3cc(OC)ccc3OC)c(C)o2)c1", "Potency": "inactive"}, {"smiles": "O=C(CSc1nnc(C2COc3ccccc3O2)o1)NC1CCCCC1", "note": "(configuration not stated)", "Potency": "inactive"}, {"smiles": "CN(C(=O)COC(=O)c1ccccc1NC(=O)c1ccco1)C1CCS(=O)(=O)C1", "note": "(configuration not stated)", "Potency": "inconclusive [inhibitor, single point]"}, {"smiles": "COc1ccc(C(=O)NCc2ccc(Cl)cc2)cc1S(=O)(=O)N1CCCC1", "Potency": "inconclusive [inhibitor, full curve]"}, {"smiles": "C#CCOCCOCCOCCNc1nc(N2CCN(C(=O)[C@H]([C@@H](C)CC)n3cc(CCCN=C(N)N)nn3)CC2)nc(N2CCN(C(=O)[C@H](CCCCN)n3cc(CCCC)nn3)CC2)n1", "Potency": "inconclusive [inhibitor, partial curve]"}, {"smiles": "COC(=O)C1CCN(C(=O)COC(=O)c2cc(-c3cccs3)nn2-c2ccccc2)CC1", "Potency": "inconclusive [inhibitor, full curve, poor fit]"}, {"smiles": "Cc1ccccc1Cn1c(C)nc2ccccc21", "Potency": "inconclusive [inhibitor, full curve, poor fit]"}, {"smiles": "COc1ccc(CN2CC(=O)N(c3ccccc3OC)C2=S)cc1OC", "Potency": "inactive"}, {"smiles": "COCCC(=O)Nc1c(-c2ccccc2)c2cc(Br)ccc2[nH]c1=O", "Potency": "inconclusive [inhibitor, partial curve, poor fit]"}, {"smiles": "CCOC(=O)Cc1nnc(NC(=O)C(CC)Sc2nncn2C)s1", "note": "(configuration not stated)", "Potency": "inconclusive [inhibitor, full curve]"}, {"smiles": "COc1ccc(C2c3c(oc4ccccc4c3=O)C(=O)N2c2ccccn2)cc1", "note": "(configuration not stated)", "Potency": "inconclusive [inhibitor, partial curve, poor fit]"}, {"smiles": "CN1C(=O)C(=CN2CCN(C(=O)c3ccco3)CC2)C(=O)N(C)C1=S", "Potency": "inconclusive [inhibitor, partial curve, poor fit]"}, {"smiles": "COc1cc(OC)cc(-c2cc3nc(C)c(CCC(=O)O)c(=O)n3[nH]2)c1", "Potency": "inconclusive [inhibitor, partial curve, poor fit]"}, {"smiles": "Cc1ccc(S(=O)(=O)CCC(=O)NCCC2=CCCCC2)cc1", "Potency": "inconclusive [inhibitor, full curve]"}, {"smiles": "CC(Oc1ccc(-c2nnco2)cc1)C(=O)N1CCOCC1", "note": "(configuration not stated)", "Potency": "inconclusive [inhibitor, full curve, poor fit]"}, {"smiles": "C=CCNC(=O)COc1ccc(Br)cc1Cl", "Potency": "inconclusive [inhibitor, partial curve]"}, {"smiles": "O=C1Nc2ccccc2C1(O)c1ccccc1", "note": "(configuration not stated)", "Potency": "inconclusive [inhibitor, full curve]"}, {"smiles": "COc1ccc(C)cc1NS(=O)(=O)c1cc(Br)cc2c1N(C(C)=O)C(C)C2", "note": "(configuration not stated)", "Potency": "inconclusive [inhibitor, partial curve, poor fit]"}, {"smiles": "CC(=O)Nc1cccc(NC(=O)CSc2nnc3ccc(-c4cccnc4)nn23)c1", "Potency": "inconclusive [inhibitor, single point]"}, {"smiles": "Cc1cc(-c2n[nH]c(=S)n2/N=C/C(Cl)=C/c2ccccc2)n[nH]1", "Potency": "inactive"}, {"smiles": "COc1ccc(CNC(=O)C(C)N2C(=O)NC3(CCCCCCC3)C2=O)cc1", "note": "(configuration not stated)", "Potency": "inconclusive [inhibitor, partial curve, poor fit]"}, {"smiles": "CN(C)S(=O)(=O)c1cccc(C(=O)OCC(=O)NCc2ccccc2)c1", "Potency": "inconclusive [inhibitor, full curve, poor fit]"}, {"smiles": "N#CCCN1CCN(S(=O)(=O)c2ccc(S(=O)(=O)N3CCCCCC3)cc2)CC1", "Potency": "inconclusive [inhibitor, partial curve, poor fit]"}, {"smiles": "Cc1c(Cl)cccc1-n1nnc(-c2nc(-c3ccc4c(c3)OCO4)no2)c1C", "Potency": "inactive"}, {"smiles": "COc1ccc(-c2nnc(SCC(=O)NC3CCCCC3)o2)cc1", "Potency": "inactive"}, {"smiles": "c1ccc2sc(NC3=NCCN3)nc2c1", "Potency": "inactive"}, {"smiles": "O=C(NNC(=O)c1cc(Cl)nc2ccccc12)c1ccccc1F", "Potency": "inconclusive [inhibitor, single point]"}, {"smiles": "N#CCCn1nc(-c2ccccc2)cc1Nc1ccccc1NC(=O)c1cccs1", "Potency": "inactive"}, {"smiles": "COc1ccccc1N1CCN(C(CNS(=O)(=O)c2cc(F)ccc2F)c2cccnc2)CC1", "note": "(configuration not stated)", "Potency": "inconclusive [inhibitor, full curve, poor fit]"}, {"smiles": "N#CC1(C#N)CC(C=O)=C(N)C1(C#N)CC(=O)c1ccc(F)cc1", "note": "(configuration not stated)", "Potency": "inconclusive [inhibitor, single point]"}, {"smiles": "Cc1cc2nc3c(nc2cc1C)C1(C(=O)O)CCC3(C)C1(C)C", "note": "(configuration not stated)", "Potency": "inconclusive [inhibitor, full curve]"}]}]}
